Experimental data taken from the supplement of paper PMC10126150.
Values marked as one replicate rest on one cluster of the flow cell; about a third of the high ones do not repeat.

tested on: ATP; assay: switch fluorescence ratio, 500 uM ATP over buffer (Cy3 cluster intensity, sum of 5 cycles each) (fold (ratio)); higher = stronger signal-on switching upon ATP binding; sequences stand for … in TCGTCGGCAGCGTCAGATGTGTATAAGAGACAGTTTTTTTTTTTTTTTTTTTTTTTTT…TC; settings: aptamer strand: ATP DNA aptamer (quencher-CACCTGGGGGAGTATTGCGGAGGAAGG + anchor), 100 nM annealed; ATP concentration: 500 uM; one replicate
Procedure, shortened: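 The quencher-labelled ATP aptamer, at 100 nM, was annealed to Cy3-labelled switching-strand clusters on a modified Illumina MiSeq flow-cell. The clusters were imaged in selection buffer, then after 15 min with 500 uM ATP at 22 °C, and this buffer/ATP cycle ran five times with NaOH stripping and re-annealing between runs. Per-cluster fluorescence ratios, summed target-cycle over summed buffer-cycle Cy3 intensity, were averaged per switch-domain sequence. Clusters outside 100-1000 RFU were excluded.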
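Note: ATP exposure 15 min at 22 °C before imaging.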

Row | Sequence | switch fluorescence ratio
1 | ATGAGAAAAT | 0.981
2 | TACTTTATAC | 1.14
3 | GAGCCCCACT | 1.04
4 | CGGAGCAGCG | 1.24
5 | CGTAGTTAT | 1.1
6 | ATCTCGTCTG | 0.964
7 | CGCCCATTTC | 1.25
8 | CTTGGCTGCA | 1.02
9 | GTGTAGTGGG | 0.984
10 | TTTCTGAATA | 1.02
11 | AATGTCGCAA | 1.74
12 | GGCAGTGTAA | 1.02
13 | GAGTCGATGC | 1.09
14 | ATCAACGGGG | 0.998
15 | CCATGCAGGG | 1.05
16 | GTTTATAAAT | 1
17 | CCTGGTTCGA | 0.964
18 | ATTTCGGGTC | 0.993
19 | GATCATTAAG | 0.966
20 | GTAACAAGAA | 1.01
21 | TTTGAATTA | 0.995
22 | TAGGTCCTGA | 0.961
23 | CCGGGGCCGG | 1.01

Row | Sequence | switch fluorescence ratio
24 | TTTATCTAAC | 1.02
25 | CGAAATGATA | 1.02
26 | TTGTAATGAC | 1.05
27 | TAATCGTAGG | 0.982
28 | ACTGTAAAAT | 1.05
29 | AGCGGCACTA | 1.07
30 | ATGGTGTGTC | 0.944
31 | TGAATGTCTC | 0.974
32 | CGGGCATTAA | 1.2
33 | TTCATATCCA | 1
34 | GACTGGGGCC | 1
35 | ATCATCGGTG | 0.985
36 | GCATGGAACT | 1.01
37 | GTGCGTACGT | 1.03
38 | ATCTCACTCT | 1.05
39 | GTTAAGCCTG | 1
40 | GGACTATGAA | 0.972
41 | TCTATAAGT | 1.03
42 | AGAAGAGTGG | 1.03
43 | ATTCCCCACT | 1.07
44 | ACCATCTTGT | 1.02
45 | CGGTTGTTTA | 1
46 | GCTTGGTCTG | 1.01

Row | Sequence | switch fluorescence ratio
47 | AGAGTACTTC | 1.02
48 | CTTACCGCTA | 1.69
49 | CCTTGTCTGA | 0.93
50 | TGAGTCCCTC | 0.991
51 | GGGACCTGAG | 1.04
52 | CTGGAGGGCC | 1.02
53 | AGTTCTACG | 0.978
54 | TAGAACACTA | 1.02
55 | TCTCTGAGCA | 1.19
56 | TTTTAGTGG | 1.01
57 | AATTACCCAG | 1
58 | CTTTAGCCCT | 0.979
59 | AAGACTGTAT | 1.15
60 | GACCGTTTAT | 1.03
61 | AAAAAATGTA | 0.967
62 | TTAATCCCCG | 0.964
63 | GTGGTTGTGA | 0.986
64 | TACGGCTTGT | 1.04
65 | TGAGCACATT | 1.25
66 | GCAGCCATTC | 1.78
67 | TTCTCCATCC | 1.12
68 | ACTTTGGGC | 0.986
69 | GGGGCATTG | 0.968

Row | Sequence | switch fluorescence ratio
70 | CCGGGGTTGC | 1.07
71 | AGCATGATCT | 0.99
72 | CAGGGACAGG | 1
73 | GGATGGGCGT | 0.973
74 | GCTCCTAAGA | 1.08
75 | TAGTGTTCCG | 0.91
76 | TGCGACGACG | 1.05
77 | AGCAACTAAT | 1.05
78 | TGGTGACGG | 1.02
79 | CTTAGTTACT | 1.02
80 | TCCGGCCCAC | 1.59
81 | CCGTGGGAAT | 1.06
82 | TTAGCGCCCG | 0.994
83 | TTTCACCGTT | 0.957
84 | TAGATAATAC | 1.6
85 | AGGTGTCTGT | 0.983
86 | AAAGTGCAGG | 1.01
87 | TTCGGAAAGT | 0.964
88 | CACCAGCCAG | 1.07
89 | GTTACTTTAG | 1.06
90 | ATAGGTCAGC | 0.994
91 | TTATACCCAG | 1.01
92 | GTCAGATCG | 1.07

Row | Sequence | switch fluorescence ratio
93 | TATTTACTTG | 1.01
94 | ATCACGGCGG | 1.03
95 | AGGCGATTTT | 1.05
96 | CGAACGGTAG | 1.03
97 | TCTGATGCGG | 1.06
98 | ACAGGGGCAA | 0.924
99 | TTGAGGACAT | 0.985
100 | CACTAGTTGA | 1.01
101 | CCGACATTCC | 2.85
102 | TCGTTGTATG | 0.996
103 | CAGGTGCGAC | 1.24
104 | ACTCAAACAT | 1.14
105 | ATGTAAAATC | 1.01
106 | ATAACAGTTG | 1.01
107 | CAGTTATTTT | 0.954
108 | AGTTGGAC | 1.04
109 | GATGGATATG | 1.01
110 | AGTCGCAAGG | 1.04
111 | GGTTGTGGCC | 0.979
112 | AGGAACTT | 0.982
113 | AAGTAATACC | 1.3
114 | TTTTTGCCCC | 0.988
115 | TAGTGTCTTA | 0.997

Row | Sequence | switch fluorescence ratio
116 | CCATGGTAGA | 0.993
117 | GCAGCTGAAA | 1.04
118 | CTCTTGTGCG | 0.988
119 | CTATTCGATC | 0.99
120 | CGCAGACACC | 1.66
121 | CCAGGGGGA | 3.4
122 | AAACTTCTAT | 0.986
123 | TTTCTGGCGT | 1.02
124 | GTAGCGCACA | 0.999
125 | GGATCGATAT | 1
126 | GGCGTAAGGC | 1.03
127 | TACTGGGTTA | 0.992
128 | CTGGTTAAAG | 1.01
129 | ATTTATTTGG | 1
130 | CAAAGTTTAC | 1.56
131 | CTCTGTGATC | 3.63
132 | GGGAATTATC | 0.987
133 | GCGACGTGAA | 1.33
134 | TTTCCTTCAG | 1.05
135 | TATAAAAGCA | 0.977
136 | AAGAAATGAG | 1.05
137 | AAGACGGAGC | 1.16
138 | TCGTTTTGGT | 1.02

Row | Sequence | switch fluorescence ratio
139 | TCAGCGAAGG | 1.02
140 | GGCCTGCGCT | 1.11
141 | CTTGTGGAT | 0.994
142 | TGACGGGATC | 1.36
143 | ATCCTCTGCT | 1.77
144 | TCGAGCCTGT | 1
145 | GGACTCGCCA | 1.01
146 | GATCATAAAG | 0.994
147 | ACGTTCACTT | 1.3
148 | CAGCCCATCG | 0.94
149 | GCAGCAGGT | 1.14
150 | AGATTTCCCT | 1.04
151 | AATAACGTTG | 1.01
152 | ATTTGGGCG | 1.08
153 | GACTAGAAAG | 1.01
154 | GAGCGCGACA | 0.991
155 | GATACTTATT | 0.981
156 | AAGTTCACGA | 1.05
157 | TTCACTCATA | 0.99
